Among all 48,000 compounds or so, about 1,200 (2.5%) were called active. Inconclusive results (about 2%) are left out.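 How the source made its calls: active means activation of at least 60% and not above a set upper limit (about 1 call in 100 departs from these limits); inconclusive means activation of 40% to 60%, or above that upper limit; inactive means activation under 40%.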 The list shows a part of the results.
Target: Probable G-protein coupled receptor 32 (Homo sapiens) (UniProt O75388)
Test: qHTS for Agonists of Human Resolvin D1 Receptor DRV1; further: 0% is about no effect
Conditions: CHO-K1 GPR32 beta-arrestin PathHunter luminescence, 90 min; at 76.9 µM; active compounds read high; zero percent set by DMSO-only wells
In short: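 Readings come from a cell-based beta-arrestin complementation format: CHO-K1 GPR32 stable cells (2,500/well) treated 90 min with compounds, then beta-Gal substrate added for 1 h before chemiluminescence imaging.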

UniProt O75388, sequence (O75388 whole entry, looked up): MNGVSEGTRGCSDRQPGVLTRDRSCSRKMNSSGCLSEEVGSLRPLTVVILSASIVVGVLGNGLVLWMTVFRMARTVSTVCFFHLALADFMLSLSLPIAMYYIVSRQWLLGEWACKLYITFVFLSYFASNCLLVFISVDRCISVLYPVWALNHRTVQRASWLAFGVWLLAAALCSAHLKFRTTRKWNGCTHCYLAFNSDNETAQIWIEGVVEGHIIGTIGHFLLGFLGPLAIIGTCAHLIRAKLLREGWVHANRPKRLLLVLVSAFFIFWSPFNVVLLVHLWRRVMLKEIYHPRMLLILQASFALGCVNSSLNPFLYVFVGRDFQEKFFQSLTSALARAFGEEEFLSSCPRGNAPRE

SMILES	activation
CCOc1ccc(NC(=O)c2cc(=O)c3ccc(C)c(C)c3o2)cc1	inactive: -1.71%
CSc1cccc(NS(=O)(=O)c2cn(C)c(C)n2)c1	inactive: -6.5%
CCOc1ccc2c(c1)NC(c1cccs1)=NC(c1ccc(F)cc1)=N2	inactive: -34%
O=C1CSC2(C(=O)N(Cc3ccccc3)c3ccccc32)N1c1ccc(Cl)cc1 (centres undefined)	inactive: -21.7%
COc1ccc(C2C(C(=O)Nc3ccc(C)cc3C)=C(C)Nc3nc4ccccc4n32)c(OC)c1 (centres undefined)	inactive: -18.2%
COc1ccc2occ(CC(=O)Nc3ccc(S(=O)(=O)Nc4nc(C)cc(C)n4)cc3)c2c1	inactive: -7.49%
COc1ccc(N2CCN(c3nc4ccc(C)cc4n4nnnc34)CC2)cc1	inactive: -6.35%
O=C(Nc1ccc(Br)cc1F)N1CCC2(CC1)Oc1ccccc1C(=O)N2Cc1ccccc1F	inactive: -25.7%
CCN(c1ccccc1)c1nnc(NC(=O)Nc2ccc(Br)cc2F)s1	inactive: 0.55%
CC(C)(C)c1ccc(C(=O)N2CCCCC2CCN2CCCCC2)cc1 (centres undefined)	inactive: 6.13%
COC(=O)c1cc(NC(=O)Cn2nc(-c3ccc(C)c(C)c3)ccc2=O)cc(C(=O)OC)c1	inactive: -3.51%
CCC(C)NC(=O)C1=CC(c2ccc3c(c2)OCO3)=NS(=O)(=O)N1C (centres undefined)	inactive: -3.06%
COc1ccc2c(c1)cc1c(=O)n(CC(=O)NCCCc3ccccc3)nc(C)n12	inactive: -18.4%
COC(=O)c1ccc(Cn2nnc3c(=O)[nH]c(C4CCCN(S(=O)(=O)c5cccc(Cl)c5)C4)nc32)cc1 (centres undefined)	inactive: -7.72%
O=C(CN1C(=O)COc2ccc(S(=O)(=O)Nc3ccccc3)cc21)Nc1cccc(Cl)c1	inactive: 41.5%
COc1cccc2c1Oc1ncccc1N(C(=O)CCC(=O)NCc1ccccc1Cl)C2	inactive: -0.258%
Cc1ccc2nc(CNC(=O)c3ccccc3)[nH]c2c1	inactive: 4.42%
Cc1cccn2c(=O)c(C(=O)NCCc3ccccc3)c(O)nc12	inactive: 5.96%
COc1ccc(CCNC(=O)C(=O)NCC(c2ccc3c(c2)OCO3)N2CCOCC2)cc1OC (centres undefined)	inactive: -14%
Cc1cccc(-c2noc(CSc3nc(-c4ccc(F)cc4)cc(=O)[nH]3)n2)c1	inactive: -5.26%
CCOc1ccc(NC(=O)c2oc3ccccc3c2NC(=O)c2c(F)cccc2F)cc1	inactive: -5.87%

SMILES	activation
COc1ccccc1N1CCN(C(=O)CSc2nc3ccccc3nc2Cc2ccccc2)CC1	inactive: -1.63%
COc1cccc(-n2ccn(CC(=O)c3ccc(F)cc3)c(=O)c2=O)c1	inactive: -2.4%
CCOc1ccc(NC(=O)C2CCCN(S(=O)(=O)c3ccc4[nH]c(=O)ccc4c3)C2)cc1 (centres undefined)	inactive: 5.43%
Cc1ccc(NC(=O)C(=O)c2cc(C)n(-c3ccc(F)cc3)c2C)cc1C	inactive: -8.88%
CCCN(CCC)S(=O)(=O)c1ccc2c(c1)N(CC(=O)NC(C)c1ccccc1)C(=O)CS2 (centres undefined)	inactive: -24.3%
COc1ccc(CNC(=O)c2cc(Nc3ccc(C)cc3C)nc3ccccc23)cc1	inactive: 20.3%
Cc1ccc(CSC2=Nc3ccccc3C3=NC(CC(=O)NC4CCCCC4)C(=O)N23)cc1 (centres undefined)	inactive: 2.32%
COc1ccccc1N1CCN(C(=O)c2cc(-c3ccc(F)cc3)on2)CC1	inactive: -4.03%
CCN(c1cccc(C)c1)S(=O)(=O)c1nnc(NC(=O)c2ccccc2Cl)s1	inactive: 7.62%
Cc1ccc2nc(-c3ccc(NC(=O)COc4ccccc4)cc3)sc2c1	inactive: -13.5%
CC(=O)c1ccc(N2C(=O)N(CC(=O)c3ccc(C)cc3)c3ccccc3S2(=O)=O)cc1	inactive: -2.1%
CCn1c(C(=O)N2CCCC(C(=O)N3CCN(c4cc(C)ccc4C)CC3)C2)cc2sccc21 (centres undefined)	inactive: -3.65%
CCN(CC)c1ccc(NC(=O)c2sc3nc4c(cc3c2N)CN(C)CC4)cc1	inactive: -17.8%
Cc1ccc(CCNC(=O)CCS(=O)(=O)c2cc3c(cc2C)NC(=O)CO3)cc1	inactive: -11.2%
Cc1nncn1-c1ccc(C(=O)Nc2cc(F)ccc2F)cc1	inactive: 7.14%
O=C(Nc1ccc2nc(SCC(=O)N3CCc4ccccc43)sc2c1)c1cccc(Cl)c1	inactive: -5.8%
COc1cc(OC)c(OC)cc1CNc1sc2c(c1C(=O)Nc1ccccc1OC)CCC2	inactive: -8.36%
CN(C(=O)CCS(=O)(=O)c1cc2c(cc1Cl)NC(=O)CO2)C1CCCCC1	inactive: -3.7%
CCn1c(=N)c(C(=O)NC2CCCCC2)cc2c(=O)n3cc(C)ccc3nc21	inactive: 5.32%
COc1ccc(NC(=O)CSc2nc3nc(C)c(Cc4ccccc4Cl)c(C)n3n2)cc1OC	inactive: -20.3%
COc1ccc(C)cc1NS(=O)(=O)c1cc2c3c(c1)CC(=O)N3CCC2	inactive: -13.2%

SMILES	activation
COc1cc2c(cc1OC)C(COc1cc(C)cc(C)c1)N(C(=O)COc1ccccc1)CC2 (centres undefined)	inactive: -2.21%
COc1ccc(Cl)cc1NC(=O)CCCN1C(=O)C(c2ccccc2)Oc2cccnc21 (centres undefined)	inactive: -11.1%
COc1ccc(NC(=O)c2cc3c(=O)n(Cc4cccnc4)ccc3nc2C)cc1OC	inactive: 13.8%
Cc1ccccc1CCNC(=O)c1cc2cc(S(=O)(=O)N3CCCCC3)ccc2n1C	inactive: -17.3%
COc1ccc(-n2c(=O)c3ccccc3n(CC(=O)NCCc3ccc(OC)c(OC)c3)c2=O)cc1	inactive: 3.87%
CCOCCCN(Cc1ccco1)S(=O)(=O)c1cc2c(cc1C)NC(=O)CO2	inactive: -11.7%
COc1ccc(-n2ncc(C(=O)Nc3cccc(C(F)(F)F)c3)c2C2CCN(C(=O)OC(C)(C)C)CC2)cc1	inactive: -9.62%
COc1ccc(N2Cc3cccc(C(=O)Nc4ccc(F)cc4)c3C2=O)cc1	inactive: -2.7%
Cc1ccc(C2=Nc3ccccc3N(CC(=O)NCc3ccccc3Cl)C(=O)C2)cc1C	inactive: -9.52%
O=C(Nc1c(C(=O)N2CCN(c3ccccc3)CC2)oc2ccccc12)c1ccco1	inactive: -9.87%
CCN1CCCC1CN (centres undefined)	inactive: 0.193%
Cc1ccccc1CN1c2ccccc2-c2nc(SCC(=O)NCc3ccccc3)ncc2S1(=O)=O	inactive: -2.52%
Cc1c(C(=O)NCCc2ccc(Cl)cc2)sc2nc3n(c(=O)c12)CCCC3	inactive: -15.2%
CC(C)C(=O)NCC(c1ccc2c(c1)OCO2)N1CCN(c2ccccc2)CC1 (centres undefined)	inactive: -12.2%
CCN1CCN(CCCNC(=O)c2ccc3c(c2)sc2nc(-c4ccc(OC)cc4)cn23)CC1	inactive: -5.99%
CCNc1c(NC(=O)c2cc(OCC)c(OCC)c(OCC)c2)c(=O)oc2ccccc12	inactive: 1.02%
CCOC(=O)c1c(-c2ccc(OC)cc2)oc2ccc(OCc3ccc(C(=O)OC)cc3)cc12	inactive: -2.97%
CC(NC(=O)C(=O)Nc1c2c(nn1-c1ccc(F)cc1)CSC2)c1ccccc1 (centres undefined)	inactive: -26.4%
COc1cccc(CNC(=O)CCn2cccn2)c1	inactive: 8.98%
CCOC(=O)c1c(NC(=O)COc2ccc(F)cc2)sc2c1CCC(C)C2 (centres undefined)	inactive: 24.1%
O=C(NCCCN1CCN(c2ccccc2F)CC1)c1nnc(Cc2ccc(Cl)cc2Cl)o1	inactive: -9.76%

SMILES	activation
CCCCC/C=C\C/C=C\CCCCCCCC(=O)NC(C)c1ccccc1 (centres undefined)	inactive: 12.1%
CCC(=O)N1CCc2cc(Br)cc(S(=O)(=O)NCCc3ccccc3)c21	inactive: 34%
CCCCN(C)CCNC(=O)c1nn(-c2ccc(OC)cc2)c(=O)c2c1c1ccccc1n2C	inactive: -9.73%
CCOC(=O)c1[nH]cnc1C(=O)Nc1ccc(F)cc1	inactive: -77.4%
CC(C)(C)C(=O)Nc1cccc(C(=O)OCc2cc(=O)n3nc(C4CCCCC4)sc3n2)c1	inactive: -5.87%
O=C(CSc1nc2ccccc2n1Cc1ccccc1Cl)NCc1ccccc1	inactive: -33.3%
N#C/C(=C\c1ccc(-c2cc(Cl)ccc2Cl)o1)C(=O)Nc1ccccc1C(=O)O	active: 111%
COc1cccc(CNC(=O)CCNS(=O)(=O)c2ccc3c(c2)oc(=O)n3C)c1	inactive: 4.33%
Cc1cc(C)c(Cn2c(C(O)c3ccccc3)nc3ccccc32)c(C)c1 (centres undefined)	inactive: -6.57%
Cc1ccc(OCc2nc3ccccc3n2Cc2ccccc2Cl)cc1	inactive: -23.1%
COc1ccc(Br)cc1CNC(=O)C1CCCCN1S(=O)(=O)c1ccc(F)cc1 (centres undefined)	inactive: -26.3%
CCCNC(=O)CCc1c(C)nc2nc(-c3cc(OC)cc(OC)c3)nn2c1C	inactive: 3.64%
COc1cccc(CNC(=O)CCC(=O)N2Cc3cccc(OC)c3Oc3ncccc32)c1OC	inactive: -3.19%
CCn1cc(C(=O)NCc2ccccc2)c(=O)c2cc(S(=O)(=O)N3CCCCCC3)ccc21	inactive: -0.855%
COc1ccc(NC(=O)c2ccc(COc3ccccc3OC)o2)cc1OC	inactive: 16.6%
Cc1cccc(-n2nnnc2S(C)(=O)=O)c1	inactive: 9.92%
O=C(Cc1ccccc1)Nc1c(C(=O)Nc2ccccc2F)oc2ccccc12	inactive: 15.6%
CCc1ccc(-c2[nH]c3c(c2-c2sc(C)c(C(=O)OC)c2O)c(=O)n(C)c(=O)n3C)cc1	inactive: -6.37%
COc1cccc2sc(N(Cc3cccnc3)C(=O)C3COc4ccccc4O3)nc12 (centres undefined)	inactive: -18.2%
COc1ccc(N(C)C(=O)CCS(=O)(=O)c2cccc3nsnc23)cc1	inactive: -0.449%
O=C(Cn1ncc2c(=O)oc3ccccc3c21)NCc1ccc(Cl)cc1	inactive: 10.9%

Source: PubChem BioAssay AID1346428 (National Center for Advancing Translational Sciences (NCATS), 2018)
